Experimental data as given in PubChem BioAssay AID995 (National Center for Advancing Translational Sciences (NCATS), 2007).
Hit rate of the full screen: of about 72,000 compounds, about 710 (0.99%) were called active. The shares of active, inactive and inconclusive entries below differ from those in the screen. Calls follow the shape of the dose curve; as a rule, active = well fitted inhibition curve with a large enough effect; inconclusive = small, poorly fitted or top-dose-only effect; inactive = no such curve, though single readings can be large or run the other way. Potencies of inconclusive entries are left out as doubtful fits.

Experiment: qHTS Assay for Inhibitors of the ERK Signaling Pathway using a Homogeneous Screening Assay; also: nearly all actives have a fitted effect of over 55% in size
Details: HEK293-V1b, vasopressin-stimulated pERK AlphaScreen; activity, negative = inhibition: at 57.5 µM (top of the series) unless noted
In short: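 HEK293 cells stably expressing V1b receptor, preincubated 30 min at 37 °C with compound, then stimulated 5 min with 25 nM vasopressin. Phospho-ERK by AlphaScreen SureFire after 5 h RT; normalized to DMSO and vasopressin; AC50 by Hill fit.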
% is scaled to controls: 0 for no effect and ±100 for the full control effect; potency is read from the fitted curve at half-maximal effect; tags tell the direction and shape of the fitted curve.

SMILES | Potency | activity, negative = inhibition
COC(=O)C(C)N(C#N)c1nc(C)nc(C)n1 (centres undefined) | inconclusive [inhibitor, partial curve] | –
CCOC(=O)N1CCN(S(=O)(=O)c2ccc(OC)c3ccccc23)CC1 | – | inconclusive: -37.9% [inhibitor]
COc1ccc(-c2nc3cnc(OC)nc3n(-c3ccc(OC)cc3)c2=O)cc1 | inactive | –
C=CCn1c(Cc2nc3ccccc3[nH]2)n[nH]c1=S | inconclusive [inhibitor, partial curve] | –
CCOC(=O)c1c(C)c(C(=O)Nc2ccc(N(C)C)cc2)c(C)n1CC | inconclusive [inhibitor, single point] | –
COc1ccc(-c2cn3c(C)c(C(=O)NCCN4CCOCC4)sc3n2)cc1 | inactive | –
COc1ccc(NC(=O)CC2SC(=NCc3ccccc3OC)NC2=O)cc1 (centres undefined) | inconclusive [inhibitor, single point] | –
COc1cc(OC)c(C2=NOC(C(=O)NCc3ccc4c(c3)OCO4)C2)cc1Cl (centres undefined) | inconclusive [inhibitor, partial curve] | –
CCN1CCN(Cc2ccc(NC(=O)Nc3ccccc3)cc2)CC1 | inactive | –
O=c1c2ccccc2c2ccccc2c(=O)n1Cc1ccco1 | inactive | –
O=c1c(-c2ccc(Cl)cc2)nc2cnc(N3CCOCC3)nc2n1Cc1ccc(F)cc1 | inactive | –
O=C(Nc1ccc2nc(-c3ccco3)c(-c3ccco3)nc2c1)N1CCCCCC1 | inconclusive [inhibitor, partial curve] | –
CCOc1ccc(N2C(=O)CC(/C=C3/N(C)c4ccccc4C3(C)C)C2=O)cc1 (centres undefined) | inactive | –
CCOC(=O)OCC1OC(c2ccccc2)C=CC1OC(=O)OCC (centres undefined) | – | inactive: -0.432% [at 11.5 µM]
CSc1cccc(NC(=O)Nc2ccccc2)c1 | inconclusive [inhibitor, partial curve, poor fit] | –
CCOc1cc(N2CCOCC2)c(OCC)cc1NC(=O)Cc1ccc(OC)c(OC)c1 | inconclusive [inhibitor, partial curve] | –
O=C(CSC1=Nc2ccccc2C2=NC(CC(=O)NC3CCCCC3)C(=O)N12)NCc1ccco1 (centres undefined) | inactive | –
COc1ccc2cc3c(N)c(C(=O)NCc4ccco4)sc3nc2c1 | inconclusive [inhibitor, partial curve] | –
COC(=O)[C@@H]1C[C@@H]2CC[C@@H](O)C[C@@H]2N1CC1CCCCC1 | inactive | –
COc1ccc(CNC(=O)CSc2nnnn2-c2ccccc2)cc1 | inconclusive [inhibitor, single point] | –
CC1(C)OC[C@@H]2O[C@H](n3cnc4c(N)nc(Cl)nc43)[C@@H](OS(C)(=O)=O)[C@@H]2O1 | – | inactive: -3.76% [at 11.5 µM]
CCc1nc(N)c(C#N)c(-c2cccn2C)c1C | inconclusive [inhibitor, partial curve] | –

SMILES | Potency | activity, negative = inhibition
COc1ccccc1NC(=O)COc1ccc(/C=N/n2cnnc2)cc1OC | inconclusive [inhibitor, partial curve, poor fit] | –
CCN(CC)c1ccc(/C=N/n2c(C)cc(C)cc2=O)cc1 | inconclusive [inhibitor, partial curve] | –
COc1ccc(-c2nc(C#N)c(NCc3ccc(C)cc3)o2)cc1OC | inconclusive [inhibitor, partial curve] | –
C[C@@H]1O[C@@H](O[C@@H]2[C@@H](O)[C@H](OCCc3ccc(O)c(O)c3)O[C@H](CO[C@@H]3O[C@H](CO)[C@@H](O)[C@H](O)[C@H]3O)[C@H]2OC(=O)/C=C/c2ccc(O)c(O)c2)[C@H](O)[C@H](O)[C@H]1O | inconclusive [inhibitor, partial curve, poor fit] | –
Nc1ccc2oc(=O)c3ccccc3c2c1 | active: 10 µM | –
COc1ccc(NS(=O)(=O)c2ccc3oc(Nc4ccc5c(c4)OCCO5)nc3c2)cc1 | inconclusive [inhibitor, single point] | –
CCOC(=O)Nc1c(O)ccc2oc(C)c(-c3ccccc3)c12 | inconclusive [inhibitor, single point] | –
Cc1cc(O)cc(=O)o1 | inactive | –
CCn1c2ccccc2c2nnc(SCC(=O)Nc3ncccn3)nc21 | inactive | –
CCOC(=O)C(C(C)=O)c1c(Br)c(O)c(O)c2c(C(=O)c3ccc(C)cc3)coc12 (centres undefined) | inconclusive [inhibitor, single point] | –
Cc1csc(NC(=O)CSc2nnc(-c3ccoc3C)o2)n1 | inconclusive [inhibitor, single point] | –
C#CCOc1ccc2c(C)cc(=O)oc2c1 | inactive | –
O=C(COC(=O)CCc1nc2ccccc2s1)Nc1ccc(S(=O)(=O)N2CCOCC2)cc1 | inconclusive [inhibitor, single point] | –
COc1cc(-c2coc3cc(OCc4ccccc4)c(OC)c(O)c3c2=O)cc(O)c1OC | inactive | –
Cc1cccn2c(=O)c3cc(C(=O)NCC4CCCO4)n(C)c3nc12 (centres undefined) | inactive | –
Cc1ccc(C(=O)CCC(=O)Nc2cccnc2)cc1C | inconclusive [inhibitor, single point] | –
CC(=O)OC[C@@H]1O[C@H](CCO/N=C(\C)CCN2CCc3nc(-c4ccccc4)c(-c4ccccc4)cc3C2)C=C[C@@H]1OC(C)=O | – | inactive: -3.99% [at 11.5 µM]
O=S(=O)(Nc1nc2ccccc2[nH]1)c1ccccc1 | inconclusive [inhibitor, single point] | –
O=C(CN1CCC(NC(=O)Nc2ccccc2-c2ccccc2)CC1)NCc1ccco1 | inconclusive [inhibitor, partial curve] | –
Oc1ccccc1Cn1c(-c2ccccc2O)nc2ccccc21 | inconclusive [inhibitor, partial curve] | –
O=C=Nc1ccc(Cl)c(Cl)c1 | inconclusive [inhibitor, full curve, poor fit] | –
CCc1ccc2oc(-c3cccc(NC(=O)c4cccnc4)c3)nc2c1 | active: 25.1 µM | –
